Measured values published in publication PMC4336329 (PLoS ONE, 2015).
Among all 310,000 compounds or so, about 2,200 (0.71%) showed an effect of 50% or more. Effects have a minus sign here. The list shows a part of the results.

Molecular target: human ether-à-go-go-related gene (hERG) potassium channel (human, UniProt Q12809)
Assay: primary screen, population patch clamp on CHO cells stably expressing hERG

human ether-à-go-go-related gene (hERG) potassium channel, sequence (Q12809 whole entry, looked up): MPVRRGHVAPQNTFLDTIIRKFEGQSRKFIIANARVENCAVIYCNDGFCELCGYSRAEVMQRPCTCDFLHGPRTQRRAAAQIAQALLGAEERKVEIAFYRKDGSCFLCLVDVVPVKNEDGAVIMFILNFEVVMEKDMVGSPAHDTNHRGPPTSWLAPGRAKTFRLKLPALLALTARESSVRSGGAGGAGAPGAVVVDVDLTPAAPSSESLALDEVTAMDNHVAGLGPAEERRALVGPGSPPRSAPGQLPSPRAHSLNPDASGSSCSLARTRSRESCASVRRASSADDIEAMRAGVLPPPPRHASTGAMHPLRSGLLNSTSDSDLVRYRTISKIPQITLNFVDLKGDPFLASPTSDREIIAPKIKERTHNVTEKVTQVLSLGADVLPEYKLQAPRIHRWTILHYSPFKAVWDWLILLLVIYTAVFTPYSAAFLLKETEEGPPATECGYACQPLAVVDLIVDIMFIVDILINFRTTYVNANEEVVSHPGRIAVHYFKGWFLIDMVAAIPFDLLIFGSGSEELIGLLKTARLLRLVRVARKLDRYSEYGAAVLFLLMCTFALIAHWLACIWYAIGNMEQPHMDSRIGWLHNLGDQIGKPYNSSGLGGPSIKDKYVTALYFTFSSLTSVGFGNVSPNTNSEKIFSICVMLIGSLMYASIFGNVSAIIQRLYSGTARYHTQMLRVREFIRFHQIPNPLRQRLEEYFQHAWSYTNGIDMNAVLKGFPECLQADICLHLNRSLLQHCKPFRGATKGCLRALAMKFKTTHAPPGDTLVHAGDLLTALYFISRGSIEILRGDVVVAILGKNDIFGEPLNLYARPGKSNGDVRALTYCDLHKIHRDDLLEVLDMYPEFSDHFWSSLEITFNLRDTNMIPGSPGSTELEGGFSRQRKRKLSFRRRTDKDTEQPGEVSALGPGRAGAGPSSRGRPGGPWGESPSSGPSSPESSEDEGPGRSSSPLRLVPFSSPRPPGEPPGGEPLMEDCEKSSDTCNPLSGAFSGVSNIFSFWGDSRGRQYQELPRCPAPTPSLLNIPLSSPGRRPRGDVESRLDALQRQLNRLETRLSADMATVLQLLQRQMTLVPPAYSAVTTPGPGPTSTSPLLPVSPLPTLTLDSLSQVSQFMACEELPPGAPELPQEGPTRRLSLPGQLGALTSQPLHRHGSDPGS

Row | Structure (SMILES) | hERG current change (%, negative = inhibition) at 1uM [%]
1 | O=C(Nc1ccccc1C(=O)Nc1ccccc1C(=O)O)c1ccccc1 | 11.8
2 | CCCSc1nc2[nH]ncc2c(=O)[nH]1 | 10.4
3 | Cc1ccc(C(=O)Nc2ccc(C(=O)O)cc2)cc1S(=O)(=O)Nc1cccc([N+](=O)[O-])c1 | 6.09
4 | Cc1ccc(C(=O)NN(CCC(=O)NC(C)(C)C)C2=NS(=O)(=O)c3ccccc32)cc1 | 4.97
5 | Cc1ccc(NC(=S)Nc2cc(C)on2)cc1 | 7.75
6 | NC(=O)c1c(NC(=O)Cn2nc(C(=O)O)c3ccccc3c2=O)sc2c1CCC2 | 11.8
7 | CCOC(=O)c1cnc(-c2ccccc2)nc1Oc1cccc(Cl)c1 | 7.75
8 | Cc1ccccc1C(=O)Nc1ccccc1C(=O)NCC(C)C | 13.7
9 | Cc1cc(C)cc(NC(=O)COC(=O)CCCNC(=O)c2ccc(Cl)cc2)c1 | 2.42
10 | O=C(/C=C/c1c(Cl)nc2ccccn12)Nc1ccc(F)cc1 | 18
11 | Cc1nn(-c2ccccc2)c(N)c1C(O)(CSc1nccn1C)C(F)(F)F (stereo not shown) | 15.5
12 | CCCCc1ccc(NC(=O)N2CCNC(=O)C2CC(=O)Nc2ccsc2C(=O)OC)cc1 (stereo not shown) | 11.8
13 | O=S(=O)(Cc1ccccc1Cl)CC(O)COc1ccccc1Cl (stereo not shown) | -2.92
14 | COc1cc2c(cc1OC)n(CC(=O)NC1CCCCCC1)n1c(C)cc(=O)nc21 | -0.313
15 | COc1cccc(/C=N/NC(=O)CSc2cccc3cccnc23)c1 | 8.91
16 | CC(=O)c1c(N2CCN(C)CC2)nc(=S)n(Cc2ccccc2)c1C | 1.93
17 | Cc1ccc(-c2[nH]c3ccccc3c2SCCN)cc1 | 4.76
18 | CCCOc1ccc(-c2nc(C#N)c(N3CCc4ccccc4C3)o2)cc1 | -7.81
19 | Cc1c(C(=O)N2CCOCC2)oc2ccc(S(=O)(=O)N3CCCCCC3)cc12 | 7.94
20 | COC(=O)c1c(NC(=S)NNS(=O)(=O)c2ccc(OC)cc2OC)sc2c1CCCCCC2 | -22
21 | COCCN1C(=O)c2ccccc2C(C(=O)NCc2ccco2)C1c1c[nH]c2ccccc12 (stereo not shown) | 1.92
22 | Cc1onc(-c2ccccc2)c1C(=O)Nc1ccccc1NC(=O)c1c(-c2ccccc2)noc1C | 1.02
23 | CCN1CCCC1CNC(=O)Cn1cc2c(n1)CCC(C)C2 (stereo not shown) | 8.87
24 | CC(=NCc1ccco1)c1c(O)n(-c2ccc(C)cc2)c(=O)[nH]c1=O | 15.8
25 | CCN(CC)CCn1c(NCc2cccc(OC)c2)nc2ccccc21.Cl | -23.3
26 | CC(C(=O)NC1CCCC1)N(C(=O)c1ccc(-c2ccccc2)[nH]1)c1ccccc1F (stereo not shown) | 3.86
27 | CCC(=O)Nc1ccc(C(=O)CSc2nnc(-c3ccccc3F)n2CCc2ccccc2)cc1 | 11.6
28 | Cc1ccc2c(c1)C(c1ccccc1)N(C(=O)CC(C)C)CC(=O)N2 (stereo not shown) | -3.03

Row | Structure (SMILES) | hERG current change (%, negative = inhibition) at 1uM [%]
29 | CCC(=O)c1ccc(OCc2ccc(C(=O)OC)o2)c(OC)c1 | -0.557
30 | CC1(C)Nc2ccccc2C(=O)N1NS(=O)(=O)c1ccccc1 | 8.64
31 | CC(C)CCN1CCN(CCCc2ccccc2)CC1CCO (stereo not shown) | -1.8
32 | C=CCSc1nnc2c(n1)[nH]c1c(C)cccc12 | 0.607
33 | CN1C(=O)Cc2cc(S(=O)(=O)NCCc3ccccc3)ccc21 | 7.96
34 | O=C(C1CC1)N1CCc2cc(Br)cc(S(=O)(=O)N3CCCCCC3)c21 | 6.34
35 | CNC(=O)N1CCC(C(=O)c2c(C)c(C)c(C)c(C)c2C)CC1 | 13
36 | O=C(C1CC1)N1N=C(c2ccncc2)CC1(O)C(F)(F)F (stereo not shown) | 22
37 | Cc1nc(C)c(C(=O)C2=C(O)C(=O)N(CCN3CCOCC3)C2c2cccnc2)s1 (stereo not shown) | 8.65
38 | CC(=O)N1N=C(c2ccccc2)CC1c1cn(C)c2ccccc12 (stereo not shown) | 1.73
39 | CCCCC(=O)N=c1sc2cc([N+](=O)[O-])ccc2n1C | 8.17
40 | CC1CCN(CC(O)COC2CCC(C(C)(C)C)CC2)CC1.Cl (stereo not shown) | -1.9
41 | CCCc1nc2nc(C)c(NS(=O)(=O)c3ccc(F)cc3)c(=O)n2[nH]1 | 15.8
42 | Cn1c(O)c(C=Nc2ccccc2Sc2ccccc2)c(=O)n(C)c1=O | 14
43 | CCOCCOC(=O)c1cccc2c1-c1ccccc1C2=O | 11.6
44 | CSCCC(NC(=O)/C(=C/c1ccc2c(c1)OCO2)NC(=O)c1cccc([N+](=O)[O-])c1)C(=O)O (stereo not shown) | 1.58
45 | CC(C)(C)C(=O)NCCCNc1ccc([N+](=O)[O-])cc1 | -9.67
46 | CCOc1ccccc1N(C)C(=O)c1cn(C)c(=O)c2ccccc12 | 14.8
47 | O=C(C1=C[C@@H](C2CC2)C[C@@H](OCCCCO)O1)N1CCN(Cc2ccc3c(c2)OCO3)CC1 | 9.7
48 | COc1cc(S(=O)(=O)Nc2ccc(C)cc2)ccc1N=Cc1c(C)c(C#N)c(=O)n(C)c1O | 9.2
49 | COC(=O)CSc1nc2c(c(-c3ccc(O)cc3)c1C#N)CCCC2 | 9.09
50 | Cc1ccccc1NC(=O)CSc1nnc(NC(=O)c2ccco2)s1 | -1.6
51 | CC(=O)Nc1ccc(N(C(=O)Cn2nnc3ccccc32)C(C(=O)NC2CCCC2)c2ccc(O)c(O)c2)cc1 (stereo not shown) | 15
52 | O=C(Cc1c(C(=O)O)[nH]c2ccc(Cl)cc12)Nc1ccc2c(c1)OCCO2 | 11.6
53 | CCOC(=O)C(C)n1cnc2c(nnn2-c2ccc(OC)cc2)c1=O (stereo not shown) | -2.53
54 | COc1ccc(C(=O)N2CCN(Cc3ccccn3)CC2)cc1.O=C(O)C(=O)O | 3.65
55 | Clc1ccc(OCCCNCc2ccccc2)c2ccccc12.O=C(O)C(=O)O | 11.6
